Results on 42 compounds are retold here after ChEMBL document CHEMBL4888484, “Replenishing the malaria drug discovery pipeline: Screening and hit evaluation of the MMV Hit Generation Library 1 (HGL1) against asexual blood stage Plasmodium falciparum ,using a nano luciferase reporter read-out” (2022).

About 540 (0.36%) of roughly 150,000 compounds showed an effect of 50% or more. Some of the results follow.

This assay has as its system Plasmodium falciparum. The assay can be described thus: Primary screen in NF54 nanoGlo assay, in single point, at 2uM, 72h; a lower Z score goes with more inhibition. In kind it is functional, Erythrocyte. The conditions noted are these: timepoint 72 hour.
For orientation: % Inhibition means the relative decrease from the control value, in per cent. Turning to `O=c1c2nccnc2ncn1C[C@H]1CCc2ccccc2O1`, the “% Inhibition” value is on record as -1% and the Z score is recorded as 0.13.
On to `CC1(C)CN(C(=O)c2cc(O)nc3ccccc23)CCO1`, for which the “% Inhibition” value is on record as -8% and the Z score stood at 1.45.
Take `CCC(C)CN(CC(=O)N1CCc2sccc2C1COc1ccc(Cl)cc1)C(=O)c1cccs1` (centres undefined): the “% Inhibition” value is -6% and the Z score was found to be 0.71.
On the same counts, the results for `C[C@@H](c1ccon1)N(C)CC(=O)Nc1cnccn1` are -5% and 0.51.
With `COCCN(C)C(=O)NOCc1ccccc1`, the “% Inhibition” value worked out at 6% and the Z score is -0.82.
As for `COc1ccc(NC2CCOCC2)cc1`, the “% Inhibition” value is recorded as -14% and the Z score turned out to be 1.62.
The matching figures for `C[C@@H](CC(=O)Nc1nc(C(F)(F)F)cs1)NC(=O)C1CCCC1`: 15% and -1.27.
For the compound `CC[C@@H](CNC(=O)N1CCN(C(=O)c2ccccc2)CC1)N1CCOCC1`, the “% Inhibition” value stood at 2% and the Z score is on record as -0.34.
With `O=C(C[C@H](c1cn(Cc2ccccc2)c2ccccc12)C1CCCCC1)NCc1ccccc1`, the “% Inhibition” value is given as -13% and the Z score is 1.68.
Take `O=C(Nc1nc(C2CC2)cs1)[C@@H]1CCCO1`: the “% Inhibition” value is -11% and the Z score worked out at 2.08.
With `COC(=O)C1CCN2C(=O)N(c3cc(C)c(OC)cc3C)C(=O)C2C1` (centres undefined), the “% Inhibition” value amounted to 5% and the Z score was -0.97.
As for `CCCc1nnc(NC[C@H]2CN(C)CCO2)s1`, the “% Inhibition” value was -10% and the Z score is reported as 1.38.
`O=C(Nc1ccccc1Cl)C(=O)N[C@@H]1C[C@H]2C(=O)NCC(=O)N2C1`: the “% Inhibition” value is listed as -13% and the Z score came out at 1.75.
In the case of `O=C(O)CC[C@@H]1CN(c2nc3ccccc3s2)CC[C@@H]1N1CCOCC1`, the “% Inhibition” value is listed as -5% and the Z score turned out to be 0.97.
On to `c1ccc(CCN2CCC(C3CCOCC3)CC2)nc1`, for which the “% Inhibition” value was determined as 2% and the Z score is given as -0.2.
The matching figures for `Cc1nc(CCC(=O)N2CCCS2(=O)=O)oc1-c1ccccc1`: -5% and 1.03.
For the compound `COc1cnc(CN2CCC[C@H](Cc3nc4ccccc4[nH]3)C2)cc1O`, the “% Inhibition” value is reported as -15% and the Z score was 2.66.
Regarding `Cc1nc(-c2ccsc2)ccc1C(=O)N[C@@H](CC(C)C)c1nc(-c2nnc[nH]2)no1`, the “% Inhibition” value was 32% and the Z score is recorded as -3.65.
Turning to `CCN(C(=O)c1cnc(COc2ccccc2)nc1O)C1CCCCC1`, the “% Inhibition” value is -8% and the Z score worked out at 1.53.
With `CCn1nccc1C(=O)N1CCC2(CCC(=O)N(CCOC)C2)CC1`, the “% Inhibition” value is -8% and the Z score is recorded as 1.05.
As for `C[C@H]1OCC[C@H]1n1nnnc1N1CCCC2(CCCC2)C1`, the “% Inhibition” value is -7% and the Z score turned out to be 1.25.
The matching figures for `CCCC(=O)N1CCCC1C(=O)OC(C)c1nc(C)no1` (centres undefined): 9% and -1.35.
The matching figures for `CCOc1cc(C(=O)Nc2cc(Cl)ccc2Cl)ccc1OCCOc1ccccc1`: -7% and 1.
For `Cc1cnc(C(=O)N2CCc3[nH]c(-c4cccnc4)nc3C2)cn1`, the “% Inhibition” value amounted to 7% and the Z score is -1.33.
`COc1cccc([C@@H](CC(=O)N2CCN(c3cccc(C(F)(F)F)c3)CC2)c2c[nH]c3ccccc23)c1`: the “% Inhibition” value is given as -11% and the Z score was 1.16.
On the same counts, the results for `COc1ccc(Br)cc1CN1C(=O)CC[C@@]1(C)C(=O)NC1CCCCCC1` are 0% and -0.03.
Turning to `O=C1Nc2ccc(Cl)cc2C(=O)N2CCC[C@H]12`, the “% Inhibition” value worked out at 21% and the Z score was -2.73.
The matching figures for `COc1ccc(C2(C(=O)NC[C@]3(c4ccccc4)CCCOC3)CCOCC2)cc1OC`: -11% and 1.5.
Turning to `Cn1nc(-c2nc(C3CC3)no2)c2c1CCN(C(=O)[C@@H]1CCCO1)C2`, the “% Inhibition” value is given as -6% and the Z score came to 1.04.
Take `CCOC(=O)c1nc2c(s1)N(Cc1cnn(C)c1C)CCCC2`: the “% Inhibition” value is reported as -13% and the Z score stood at 1.38.
Turning to `COc1ccc([C@@H]2C[C@H](c3ccc(F)cc3)n3nnnc3N2)cc1`, the “% Inhibition” value was -10% and the Z score is given as 1.32.
The matching figures for `CO[C@H]1CCCN(CCN2CCN(Cc3ccccc3)CC2)C1`: -13% and 1.57.
The matching figures for `CC1OCCC1C(=O)N(C)CC(O)C(F)(F)F` (centres undefined): -11% and 1.64.
For `Cc1nc(N2CCCCCCC2)ncc1[C@H](C)NCc1cnn(C)c1C`, the “% Inhibition” value is recorded as -1% and the Z score stood at 0.26.
Regarding `O=C(NCCC(c1ccccc1)c1ccccc1)c1cc2n(n1)CCN(CC1CC1)C2=O`, the “% Inhibition” value is reported as -27% and the Z score worked out at 2.35.
The matching figures for `CCc1nnc(N(C)OC)c(C#N)c1CC`: 3% and -0.43.
With `CCOC(=O)[C@@H]1CCCCCN(C(=O)OC(C)(C)C)CCC(=O)N1`, the “% Inhibition” value is -14% and the Z score worked out at 1.84.
The matching figures for `O=C(O)c1ccc(C(=O)N(CC2CCC2)CC(F)(F)F)s1`: -5% and 0.51.
On the same counts, the results for `Cc1nccn1CC(=O)N1CCCC1C1CC(C)CCC1O` (centres undefined) are -4% and 0.7.
Regarding `COc1ccc(NC(=O)[C@@H]2CCCN2Cc2nc(-c3cccs3)no2)cc1`, the “% Inhibition” value is reported as -12% and the Z score turned out to be 1.92.
The matching figures for `CC(C)C[C@H]1CCN(c2ccnc(C(=O)NCCc3c[nH]cn3)c2)C1`: 7% and -0.93.
On to `COc1ccc(NC(=O)c2ccc3nn(CC(=O)NCc4ccc(Cl)cc4)c(=O)n3c2)cc1`, for which the “% Inhibition” value is -30% and the Z score was 2.63.
